Test results published in article PMC9911399, “Two distinct binding modes provide the RNA-binding protein RbFox with extraordinary sequence specificity”.
Numbering of substitutions follows the chain as printed; changes in the protein carry UniProt numbers. Some of the results follow.

T1: RBFOX1 RRM RbFoxmut (Fox-RRM*) (Homo sapiens, UniProt Q9NWB1 109-208, R118D;E147R;N151S;E152T)
T1 sequence: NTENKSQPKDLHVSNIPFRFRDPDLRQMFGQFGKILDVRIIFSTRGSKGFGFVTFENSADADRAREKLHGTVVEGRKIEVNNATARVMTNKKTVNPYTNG

B1: CGUUCAU (DNA:RNA)
RNA: GGGAGACCGGAAUUCAGAUUGUCCCGUUCAUUUAAAUCCCGUCGUAGCCACCA
DNA 1: CAATCTGAATTCCGGTCTCCC
DNA 2: TGGTGGCTACGACGGGATT
B2: GAAGCUG (DNA:RNA)
RNA: B1 RNA with C25G, G26A, U27A, U28G, A30U, U31G
DNA 1: CAATCTGAATTCCGGTCTCCC
DNA 2: TGGTGGCTACGACGGGATT
B3: UCGAUCG (DNA:RNA)
RNA: GGGAGACCGGAAUUCAGAUUGUCCUCGAUCGUUAAAUCCCGUCGUAGCCACCA
DNA 1: CAATCTGAATTCCGGTCTCCC
DNA 2: TGGTGGCTACGACGGGATT
B4: AAGUAUG (DNA:RNA)
RNA: B3 RNA with U25A, C26A, A28U, U29A, C30U
DNA 1: CAATCTGAATTCCGGTCTCCC
DNA 2: TGGTGGCTACGACGGGATT
B5: GAUUGAG (DNA:RNA)
RNA: B1 RNA with C25G, G26A, C29G, U31G
DNA 1: CAATCTGAATTCCGGTCTCCC
DNA 2: TGGTGGCTACGACGGGATT
B6: UUCUCGU (DNA:RNA)
RNA: B1 RNA with C25U, G26U, U27C, A30G
DNA 1: CAATCTGAATTCCGGTCTCCC
DNA 2: TGGTGGCTACGACGGGATT
B7: CUAGGUU (DNA:RNA)
RNA: B1 RNA with G26U, U27A, U28G, C29G, A30U
DNA 1: CAATCTGAATTCCGGTCTCCC
DNA 2: TGGTGGCTACGACGGGATT
B8: GCUCACA (DNA:RNA)
RNA: B3 RNA with U25G, G27U, A28C, U29A, G31A
DNA 1: CAATCTGAATTCCGGTCTCCC
DNA 2: TGGTGGCTACGACGGGATT
B9: CUCAGGC (DNA:RNA)
RNA: B1 RNA with G26U, U27C, U28A, C29G, A30G, U31C
DNA 1: CAATCTGAATTCCGGTCTCCC
DNA 2: TGGTGGCTACGACGGGATT
B10: AGUCGGA (DNA:RNA)
RNA: B1 RNA with C25A, U28C, C29G, A30G, U31A
DNA 1: CAATCTGAATTCCGGTCTCCC
DNA 2: TGGTGGCTACGACGGGATT
B11: CUGGUAC (DNA:RNA)
RNA: B1 RNA with G26U, U27G, U28G, C29U, U31C
DNA 1: CAATCTGAATTCCGGTCTCCC
DNA 2: TGGTGGCTACGACGGGATT
B12: AAUUUCA (DNA:RNA)
RNA: B1 RNA with C25A, G26A, C29U, A30C, U31A
DNA 1: CAATCTGAATTCCGGTCTCCC
DNA 2: TGGTGGCTACGACGGGATT
B13: AGGGUCC (DNA:RNA)
RNA: B3 RNA with U25A, C26G, A28G, G31C
DNA 1: CAATCTGAATTCCGGTCTCCC
DNA 2: TGGTGGCTACGACGGGATT
B14: GGGGCAU (DNA:RNA)
RNA: B1 RNA with C25G, U27G, U28G
DNA 1: CAATCTGAATTCCGGTCTCCC
DNA 2: TGGTGGCTACGACGGGATT
B15: AUCACGG (DNA:RNA)
RNA: B3 RNA with U25A, C26U, G27C, U29C, C30G
DNA 1: CAATCTGAATTCCGGTCTCCC
DNA 2: TGGTGGCTACGACGGGATT
B16: UUGUGCA (DNA:RNA)
RNA: B3 RNA with C26U, A28U, U29G, G31A
DNA 1: CAATCTGAATTCCGGTCTCCC
DNA 2: TGGTGGCTACGACGGGATT
B17: CUUUGCU (DNA:RNA)
RNA: B1 RNA with G26U, C29G, A30C
DNA 1: CAATCTGAATTCCGGTCTCCC
DNA 2: TGGTGGCTACGACGGGATT
B18: CAUGAAG (DNA:RNA)
RNA: B1 RNA with G26A, U28G, C29A, U31G
DNA 1: CAATCTGAATTCCGGTCTCCC
DNA 2: TGGTGGCTACGACGGGATT
B19: GCUGGCC (DNA:RNA)
RNA: B3 RNA with U25G, G27U, A28G, U29G, G31C
DNA 1: CAATCTGAATTCCGGTCTCCC
DNA 2: TGGTGGCTACGACGGGATT
B20: UAGCUGC (DNA:RNA)
RNA: B3 RNA with C26A, A28C, C30G, G31C
DNA 1: CAATCTGAATTCCGGTCTCCC
DNA 2: TGGTGGCTACGACGGGATT
B21: UGUCACA (DNA:RNA)
RNA: B1 RNA with C25U, U28C, C29A, A30C, U31A
DNA 1: CAATCTGAATTCCGGTCTCCC
DNA 2: TGGTGGCTACGACGGGATT
B22: GCUCGCC (DNA:RNA)
RNA: B3 RNA with U25G, G27U, A28C, U29G, G31C
DNA 1: CAATCTGAATTCCGGTCTCCC
DNA 2: TGGTGGCTACGACGGGATT
B23: UUAGGAA (DNA:RNA)
RNA: B1 RNA with C25U, G26U, U27A, U28G, C29G, U31A
DNA 1: CAATCTGAATTCCGGTCTCCC
DNA 2: TGGTGGCTACGACGGGATT
B24: GGUAUUG (DNA:RNA)
RNA: B3 RNA with U25G, C26G, G27U, C30U
DNA 1: CAATCTGAATTCCGGTCTCCC
DNA 2: TGGTGGCTACGACGGGATT
B25: UACAAAC (DNA:RNA)
RNA: B3 RNA with C26A, G27C, U29A, C30A, G31C
DNA 1: CAATCTGAATTCCGGTCTCCC
DNA 2: TGGTGGCTACGACGGGATT
B26: GUCACAC (DNA:RNA)
RNA: B1 RNA with C25G, G26U, U27C, U28A, U31C
DNA 1: CAATCTGAATTCCGGTCTCCC
DNA 2: TGGTGGCTACGACGGGATT
B27: GCUUGCA (DNA:RNA)
RNA: B1 RNA with C25G, G26C, C29G, A30C, U31A
DNA 1: CAATCTGAATTCCGGTCTCCC
DNA 2: TGGTGGCTACGACGGGATT
B28: AUCGUAC (DNA:RNA)
RNA: B1 RNA with C25A, G26U, U27C, U28G, C29U, U31C
DNA 1: CAATCTGAATTCCGGTCTCCC
DNA 2: TGGTGGCTACGACGGGATT
B29: UCUCUCG (DNA:RNA)
RNA: B3 RNA with G27U, A28C
DNA 1: CAATCTGAATTCCGGTCTCCC
DNA 2: TGGTGGCTACGACGGGATT
B30: UAUUCCC (DNA:RNA)
RNA: B1 RNA with C25U, G26A, A30C, U31C
DNA 1: CAATCTGAATTCCGGTCTCCC
DNA 2: TGGTGGCTACGACGGGATT
B31: UGUAUGU (DNA:RNA)
RNA: B1 RNA with C25U, U28A, C29U, A30G
DNA 1: CAATCTGAATTCCGGTCTCCC
DNA 2: TGGTGGCTACGACGGGATT

Each binder was assayed against T1, RBFOX1 RRM RbFoxmut (Fox-RRM*) (assay: EMSA; HiTS-Eq, 1 nM pool, 10 min; buffer printed only for the single-RNA assays: 10 mM Tris pH 7.5, 150 mM NaCl, 3.4 mM EDTA, 0.001% NP-40, 30 C). Conditions: tags: His6 N-terminal (pET28a); label: 5' 32P.
Summary of the method: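 Relative association constants, normalised to the cognate motif, were derived by comparing read counts of each RNA species with those of the control reaction. The RNA sequenced was the free fraction, separated by 8% native PAGE after a 10 min equilibration in 50 µL of 1 nM 5′-radiolabelled RNA (7 randomized nucleotides) with increasing concentrations of purified wild-type or mutant RbFox RRM.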
With B1 the binding signal was 0.0748 KA relative to UGCAUGU.
For B2, the binding signal was 0.09 KA relative to UGCAUGU.
In the case of B3, the binding signal is reported as 0.125 KA relative to UGCAUGU.
In the case of B4, the binding signal is reported as 0.498 KA relative to UGCAUGU.
With B5 the binding signal was 0.183 KA relative to UGCAUGU.
With B6 the binding signal was 0.0838 KA relative to UGCAUGU.
B7 was tested, and the binding signal was 0.108 KA relative to UGCAUGU.
For B8, the binding signal was 0.0849 KA relative to UGCAUGU.
In the case of B9, the binding signal is reported as 0.0928 KA relative to UGCAUGU.
In the case of B10, the binding signal is reported as 0.0675 KA relative to UGCAUGU.
In the case of B11, the binding signal is reported as 0.102 KA relative to UGCAUGU.
In the case of B12, the binding signal is reported as 0.0939 KA relative to UGCAUGU.
For B13, the binding signal was 0.1 KA relative to UGCAUGU.
In the case of B14, the binding signal is reported as 0.0983 KA relative to UGCAUGU.
For B15, the binding signal was 0.11 KA relative to UGCAUGU.
With B16 the binding signal was 0.212 KA relative to UGCAUGU.
For B17, the binding signal was 0.11 KA relative to UGCAUGU.
B18 was tested, and the binding signal was 0.133 KA relative to UGCAUGU.
In the case of B19, the binding signal is reported as 0.202 KA relative to UGCAUGU.
With B20 the binding signal was 0.0952 KA relative to UGCAUGU.
B21 was tested, and the binding signal was 0.0787 KA relative to UGCAUGU.
For B22, the binding signal was 0.0931 KA relative to UGCAUGU.
For B23, the binding signal was 0.0866 KA relative to UGCAUGU.
For B24, the binding signal was 0.466 KA relative to UGCAUGU.
In the case of B25, the binding signal is reported as 0.0542 KA relative to UGCAUGU.
For B26, the binding signal was 0.0993 KA relative to UGCAUGU.
In the case of B27, the binding signal is reported as 0.243 KA relative to UGCAUGU.
B28 was tested, and the binding signal was 0.139 KA relative to UGCAUGU.
B29 was tested, and the binding signal was 0.0757 KA relative to UGCAUGU.
In the case of B30, the binding signal is reported as 0.0619 KA relative to UGCAUGU.
B31 was tested, and the binding signal was 0.914 KA relative to UGCAUGU.
